From PubChem BioAssay AID1963432 (Molecular Pharmacology Branch, DTP, NCI, 2024) come the findings set out here.

This assay deals with SYO-1 complex spheroid growth, percent test/control. Nature of the assay: Anticancer human tumor SYO-1 cell line growth inhibition [Asc].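 Further: compound exposure lasted 7 days after spheroids grew 3 days; 100% = DMSO vehicle control viability.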 The following applies: stronger effect = lower value. As for the experimental part: Multicellular complex tumor spheroid response to apoptosis pathway targeting inhibitors Alrizomadlin, Pelcitoclax, and Dasminapant in combination with a variety of drugs and investigational agents in selected tumor cell lines
The MDM2 inhibitor alrizomadlin, the Bcl-2/Bcl-xL inhibitor pelcitoclax, and the IAPs inhibitor dasminapant were evaluated both individually and in combination with standard of care and investigational anticancer small molecules within a complex spheroid model of solid tumors. . Complex spheroids include a stromal component modeled by human endothelial cells (HUVEC) and fibroblasts modeled by human mesenchymal stem cells (MSCs). The concentration ranges selected for each drug and investigational agent were based upon clinically achievable concentrations if the clinical Cmax of the agent was known.
Compounds. […] If the clinical Cmax for an agent had not been determined, the highest concentration tested was 10 microM. […]

Certain results were filed several times, with different values. Only these are listed. The source may hold further records. Results that share an entry are repeats in other runs, samples, wells, individuals or studies. Marks such as [2022-09] give the month of the run.

A word on the viability, T/C: it is the ratio of treated to control. On to `CNC(C)C(=O)NC1CN(S(=O)(=O)c2cccc(S(=O)(=O)N3CCC4CCC(C(=O)NC(c5ccccc5)c5ccccc5)N4C(=O)C(NC(=O)C(C)NC)C3)c2)CCC2CCC(C(=O)NC(c3ccccc3)c3ccccc3)N2C1=O` (configuration not stated), for which, under “compound alone 0.1 µM”, the viability, T/C was 92.5, 105, 98, 84.7, 86.9, 103, 96.1, 94.6, 92.3, 84, 91.7% [2022-10] and 112%, 96.6%, 110% [2022-11].
On to `CCN1C(C(=O)NC23CCC(C(=O)O)(CC2)CC3)C(c2cccc(Cl)c2F)C2(C(=O)Nc3cc(Cl)ccc32)C12CCCCC2` (configuration not stated), for which the viability, T/C (compound alone 0.0949 µM) was 66% [2022-10] and 95.3, 85.3, 81.2, 85.5, 84.1, 87.6, 87, 81.5% [2022-11].
